Among all 310,000 compounds or so, about 2,200 (0.71%) showed an effect of 50% or more. Effects have a minus sign here. The list shows a part of the results.
Target: human ether-à-go-go-related gene (hERG) potassium channel (human, UniProt Q12809)
Experiment: primary screen, population patch clamp on CHO cells stably expressing hERG

Sequence of human ether-à-go-go-related gene (hERG) potassium channel (Q12809 whole entry, looked up): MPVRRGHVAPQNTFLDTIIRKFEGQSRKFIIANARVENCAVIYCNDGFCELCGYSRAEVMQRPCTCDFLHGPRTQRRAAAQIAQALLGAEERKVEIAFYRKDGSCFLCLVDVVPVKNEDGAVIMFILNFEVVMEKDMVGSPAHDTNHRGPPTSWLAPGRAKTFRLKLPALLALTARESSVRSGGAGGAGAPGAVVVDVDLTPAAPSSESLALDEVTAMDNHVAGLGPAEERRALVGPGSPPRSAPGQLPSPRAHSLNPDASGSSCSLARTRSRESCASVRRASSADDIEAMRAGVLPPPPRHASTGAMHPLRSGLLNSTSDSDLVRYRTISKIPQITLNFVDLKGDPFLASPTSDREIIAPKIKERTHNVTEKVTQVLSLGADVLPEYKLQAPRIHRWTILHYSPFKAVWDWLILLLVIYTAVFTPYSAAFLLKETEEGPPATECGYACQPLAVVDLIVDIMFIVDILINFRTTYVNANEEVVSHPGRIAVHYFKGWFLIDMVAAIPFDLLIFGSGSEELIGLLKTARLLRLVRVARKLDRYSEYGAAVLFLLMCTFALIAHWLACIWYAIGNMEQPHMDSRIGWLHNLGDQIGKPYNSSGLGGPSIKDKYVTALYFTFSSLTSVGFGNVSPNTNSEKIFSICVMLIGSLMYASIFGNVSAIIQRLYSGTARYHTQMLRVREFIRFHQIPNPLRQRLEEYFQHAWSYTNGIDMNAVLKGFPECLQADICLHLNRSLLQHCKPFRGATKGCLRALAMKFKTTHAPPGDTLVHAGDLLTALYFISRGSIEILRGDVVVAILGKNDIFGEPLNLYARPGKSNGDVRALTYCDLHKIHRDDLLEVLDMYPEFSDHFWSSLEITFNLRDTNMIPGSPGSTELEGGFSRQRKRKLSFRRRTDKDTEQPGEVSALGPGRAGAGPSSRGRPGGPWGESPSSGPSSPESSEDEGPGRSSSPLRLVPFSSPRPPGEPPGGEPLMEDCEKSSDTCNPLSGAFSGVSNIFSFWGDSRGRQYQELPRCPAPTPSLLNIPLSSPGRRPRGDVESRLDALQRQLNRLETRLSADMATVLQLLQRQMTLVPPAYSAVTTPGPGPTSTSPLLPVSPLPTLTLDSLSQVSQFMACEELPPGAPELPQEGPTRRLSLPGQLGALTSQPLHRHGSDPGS

| SMILES | hERG current change (%, negative = inhibition) at 1uM |
| --- | --- |
| CCOC(=O)Cc1csc(NC(=O)c2sc3nc4cc(C)ccc4cc3c2N)n1 | 7.39% |
| Cn1c(C(=O)N2CCCC(C(=O)NCc3ccc4c(c3)OCO4)C2)cc2sccc21 (stereo not drawn) | -6.21% |
| CCOC(=O)c1cc(C)sc1NC(=O)CN1CCN(C(=O)c2ccco2)CC1 | -14.7% |
| Cc1ccc(S(=O)(=O)NC(=O)c2cc(C)n(CCCN3CCOCC3)c2C)cc1 | 16.5% |
| Cc1cccc(N2CCN(S(=O)(=O)c3ccc4c(c3)CCN4C(=O)CCC(=O)O)CC2)c1C | 5.73% |
| COc1ccc(CCN(C)Cc2ccncc2)cc1OC | -18% |
| COc1ccc(C(=O)OCC(=O)Nc2ccccc2)cc1[N+](=O)[O-] | 9.05% |
| CCCCNC(=O)Nc1ccccn1 | 11% |
| COC(=O)c1cc(NC(=O)Cn2nc(C)n3cccc3c2=O)cc(C(=O)OC)c1 | 8.54% |
| CC1CN(C(=O)c2cccs2)CCN1C(=O)c1cccs1 (stereo not drawn) | 14.6% |
| CC(C)(C)c1ccc(NC(=S)NCCc2ccccn2)cc1 | 10.4% |
| O=C(/C=C/c1cc([N+](=O)[O-])ccc1OC(F)F)Nc1cccc([N+](=O)[O-])c1 | 15.8% |
| CC(C)NC(=NCc1ccc(Cl)cc1Cl)Nc1ccccc1 | 5.58% |
| O=C(c1ccccc1Br)N1N=C(c2ccccc2)CC1c1ccccc1F (stereo not drawn) | 16.5% |
| O=c1[nH]c(=S)[nH]c(O)c1N=Nc1ccc2c(c1)OCCO2 | 12.5% |
| CC(=O)Nc1c(NCC(C)C)c2ccccc2oc1=O | 14.7% |
| O=C(NCC1CCCO1)c1nn2c(C(F)(F)F)cc(-c3cccs3)nc2c1Br (stereo not drawn) | 0.26% |
| O=C(N/N=C/c1ccc2nccnc2c1)c1ccccc1O | 13.6% |
| CCOC(=O)CC1=C(C(=O)OCC)C(c2ccc(OC)c(OC)c2)C(C#N)=C(N)O1 (stereo not drawn) | 2.42% |
| COc1ccccc1C(=O)C1CCCN(C(=O)c2ccc(C(C)=O)s2)C1 (stereo not drawn) | 13.3% |
| Cc1ccc(Cl)cc1N1CCN(C(=O)Cn2ccc3ccccc3c2=O)CC1 | 14.2% |
| COc1cc(NC(=O)CN2C(=O)COc3ccc(S(=O)(=O)N4CCOCC4)cc32)cc(OC)c1 | 5.32% |
| COC(=O)/C=C1\S/C(=N/NC(=O)c2ccccc2)NC1=O | 11.1% |
| CCOC(=O)c1ccc2nc(C)c(CC)c(Cl)c2c1 | 12.2% |

— article PMC4336329 (PLoS ONE, 2015)
